Among all 130,000 compounds or so, about 1,900 (1.5%) were called active. Inconclusive results, whose numbers are uncertain, are shown with a selection of clear calls. Calls follow the shape of the dose curve; as a rule, active = well fitted cell-killing curve with a large enough effect; inconclusive = small, poorly fitted or top-dose-only effect; inactive = no such curve, though single readings can be large or run the other way. A potency beside an inconclusive call is a rough fit, not a confirmed value.
Assay: qHTS Screen for Compounds that Selectively Target Cancer Cells with p53 Mutations: Cytotoxicity of p53ts Cells at the Nonpermissive Temperature; also: nearly all actives have a fitted effect of over 55% in size
Settings: H1299-p53A138V viability at 39C, ATP luminescence, 24 h; activity change, negative = cell killing: at 46.1 µM (top of the series)
% is scaled to controls: 0 for no effect and ±100 for the full control effect; potency is read from the fitted curve at half-maximal effect; tags tell the direction and shape of the fitted curve.

SMILES | Potency | activity change, negative = cell killing
COc1ccc(NC(=O)c2cc3ccccc3o2)cc1 | active: 15.8 µM | 
CCOc1ccc(N(CC)S(=O)(=O)N2CCCC(C(=O)NCCc3ccc(OC)cc3)C2)cc1 (centres undefined) | inconclusive: 31.6 µM [cytotoxic, single point] | 
Cc1ccc(O)c(C(=O)c2cnc3c(c2)COc2ccccc2-3)c1 | inconclusive: 0.0045 µM [cytotoxic, full curve, poor fit] | 
COc1ccc(/C=C(\C#N)c2nc3ccccc3n2C)c(OC)c1 | inconclusive: 10 µM [cytotoxic, partial curve] | 
COc1cccc(NC(=O)c2cnc(SCC(=O)N3CCOCC3)n(C)c2=O)c1 | active: 12.6 µM | 
CCCCN(C)CCCNC(=O)Cn1ncc2c3ccccc3n(Cc3cc(C)ccc3C)c2c1=O | active: 2.51 µM | 
CCOc1ccc(CNS(=O)(=O)c2ccc(-c3coc(C)n3)cc2)cc1OC | inconclusive: 0.0158 µM [cytotoxic, full curve] | 
O=S(=O)(c1cccc(F)c1)N1CCC(Oc2ccc(-n3cnnn3)cc2)CC1 | inconclusive: 25.1 µM [cytotoxic, single point] | 
COc1ccccc1CN1CCC(CNC(=O)c2cnn(-c3ccc(Cl)cc3)c2C2CCN(C(=O)OC(C)(C)C)CC2)CC1 | inconclusive: 20 µM [cytotoxic, single point] | 
Cc1ccc(CN(Cc2ccco2)C(=O)c2ccc(Cl)cc2)o1 | inactive | 
COc1ccc(NC(=O)CSc2nccn2Cc2ccco2)c(OC)c1 | inconclusive: 15.8 µM [cytotoxic, partial curve] | 
CSc1ccc(/C=N/n2c(C)cc(C)cc2=O)cc1 | inconclusive: 12.6 µM [cytotoxic, single point] | 
CCN1CCCC1Cn1c(-c2ccccc2)nc2c(NC3CCCCC3)nc(C)nc21 (centres undefined) | inconclusive: 20 µM [cytotoxic, single point] | 
Cc1cc(F)ccc1NC(=O)Cn1c(=O)ccc2cc(S(=O)(=O)N3CCC(C)CC3)ccc21 | inactive | 
Cc1cccc(NC(=O)CSc2nc3ccc(NC(=O)COc4ccccc4F)cc3s2)c1 | active: 10 µM | 
O=C(CSc1ccc2nc(-c3ccccc3)cn2n1)Nc1cccc(F)c1 | inconclusive: 31.6 µM [cytotoxic, partial curve, poor fit] | 
CS(=O)(=O)c1nc(-c2ccccc2)cc(C(F)(F)F)n1 | inconclusive: 25.1 µM [cytotoxic, single point] | 
COC(=O)Cn1c(CN2CCc3ccccc3C2)nc2c1c(=O)n(C)c(=O)n2C | inconclusive: 5.01 µM [cytotoxic, partial curve] | 
Cc1oc(-c2cccc(Cl)c2)nc1Cn1c(SCc2ccccc2F)nc2ccncc21 | inconclusive: 5.01 µM [cytotoxic, full curve] | 
Cc1ccc(N2CCN(S(=O)(=O)c3ccc4[nH]c5c(c4c3)CCCCC5)CC2)c(C)c1 | inconclusive: 1.26 µM [cytotoxic, single point] | 
Fc1ccc(-c2cn3cc(Cc4ccccc4)sc3n2)cc1 | active: 5.01 µM | 
CCCCS(=O)(=O)c1nc(-c2ccc(Br)cc2)cc(-c2ccccc2)c1C#N | inconclusive: 1.58 µM [cytotoxic, full curve] | 
COc1cccc(-n2nnc(-c3nc(-c4ccccc4F)no3)c2C)c1 | inconclusive: 15.8 µM [cytotoxic, single point] | 

SMILES | Potency | activity change, negative = cell killing
COC(=O)c1cc(NC(=O)c2ccc3c(c2)NC(=O)c2ccccc2S3)cc(C(=O)OC)c1 | inconclusive: 12.6 µM [cytotoxic, partial curve, poor fit] | 
CSc1cccc(NC(=O)Cn2ncn3c(cc4ccccc43)c2=O)c1 | inconclusive: 20 µM [cytotoxic, partial curve, poor fit] | 
O=C(CSc1nc2c([nH]c3ccccc32)c(=O)n1-c1ccc(F)cc1)NCc1ccccc1 | inconclusive: 31.6 µM [cytotoxic, single point] | 
COc1ccc(C(=O)NCC(c2cccnc2)N2CCc3ccccc3C2)cc1OC (centres undefined) | inactive | 
Cc1c(C(=O)c2no[n+]([O-])c2C(=O)c2cnn(C)c2C)cnn1C | inconclusive: 25.1 µM [cytotoxic, single point] | 
Clc1ccc(-c2nnc(-c3ccccc3)o2)c(Cl)c1 | active: 10 µM | 
O=C1C=CC(=O)N1CCCCCCN1C(=O)C=CC1=O | inconclusive: 25.1 µM [cytotoxic, single point] | 
COc1ccc(-c2n[nH]c(=S)n2C2CCCCC2)cc1 | inactive | 
COc1cc(/C=C/C(=O)N2CCCCC2=O)cc(OC)c1OC | active: 12.6 µM | 
COc1ccc(NC(=O)c2oc3ccccc3c2NC(=O)c2ccc3c(c2)OCO3)cc1 | inconclusive: 3.98 µM [cytotoxic, partial curve] | 
CCCN1C(C(=O)c2ccccc2)=C(OC(=O)COc2ccccc2)c2ccccc2S1(=O)=O |  | inconclusive: -33.2% [cytotoxic]
O=c1cc(-c2cccc(O)c2)oc2ccc(O)cc12 | inconclusive: 10 µM [cytotoxic, partial curve] | 
CC(C)Oc1ccc2c(=O)cc(-c3ccccc3)oc2c1 | inconclusive: 7.94 µM [cytotoxic, partial curve] | 
c1ccc(-n2ncc3c2ncn2nc(-c4ccco4)nc32)cc1 | inconclusive: 12.6 µM [cytotoxic, partial curve] | 
Cc1ccc2nc(NC(=O)CSc3nccn3Cc3ccc(Cl)cc3)sc2c1 | inconclusive: 0.0063 µM [cytotoxic, full curve, poor fit] | 
c1ccc(-c2csc(N3CCN(c4ccccn4)CC3)n2)cc1 | inconclusive: 15.8 µM [cytotoxic, single point] | 
CC(C)CS(=O)(=O)c1oc(-c2ccc(F)cc2)nc1S(=O)(=O)c1ccccc1 | active: 2.51 µM | 
O=C(c1ccc(F)cc1)c1ccc(N2CCCC2)cc1 | inconclusive: 20 µM [cytotoxic, single point] | 
O=C(NC1CCCCCCC1)C1=COCCO1 | inactive | 
Clc1cccc(-c2nnc(-c3ccccc3)o2)c1 | active: 12.6 µM | 
COc1ccc2[nH]cc(CCNc3nc(-c4ccc(C(=O)N(C)C)cc4)nc4ccccc34)c2c1 | inconclusive: 10 µM [cytotoxic, partial curve] | 
Cc1ccc(C)c(-n2nnnc2Sc2nnnn2-c2ccccc2)c1 | active: 10 µM | 
COc1cccc(Nc2ncc3ncc(=O)n(CCc4ccccc4)c3n2)c1 | inconclusive: 10 µM [cytotoxic, partial curve] | 

SMILES | Potency | activity change, negative = cell killing
Cc1ccc(CNC(=O)CCc2c(C)nc3c(c(C)nn3-c3ccccc3)c2C)cc1 | inconclusive: 25.1 µM [cytotoxic, single point] | 
CC(=O)NCCNc1nc(-c2ccc(N(C)C)cc2)nc2ccccc12 | active: 12.6 µM | 
COc1ccc(/C=C\c2onc(C)c2S(=O)(=O)N2CCC(C(=O)Nc3cccc(Cl)c3)CC2)cc1 | inactive | 
CNc1nnc(-c2ccc(N(C)C)cc2)s1 | active: 7.94 µM | 
CCOC(=O)c1cc(-c2ccccc2)n(CCC(=O)NC2CCCCC2)c1C | inactive | 
CCn1c(=O)c2cc(C(=O)N(CC(C)C)CC(C)C)sc2c2ccccc21 | inconclusive: 20 µM [cytotoxic, single point] | 
COc1ccc(/C=C(/C#N)c2nc(-c3ccc(-c4ccccc4)cc3)cs2)cc1OC | inconclusive: 3.16 µM [cytotoxic, full curve] | 
CN(C)c1ccc(-c2nc(N3CCNCC3)c3ccccc3n2)cc1 | active: 10 µM | 
COC(=O)Cc1c(C)nc2nc(-c3ccc(OC)cc3)[nH]n2c1=O | inconclusive: 10 µM [cytotoxic, partial curve] | 
CCOC(=O)c1c(NC(=O)c2cc(=O)c3c(C)cc(C)cc3o2)sc(C(C)=O)c1C | inactive | 
N#C/C(=C/c1ccc(N2CCOCC2)o1)c1nc2ccccc2[nH]1 | inconclusive: 11.2 µM [cytotoxic, single point] | 
CCn1c(SCc2ccccc2Cl)nc(=O)c2c(C(=O)OC)cc(C3CC3)nc21 | active: 12.6 µM | 
O=C(NCC1OCCc2ccccc21)c1ccc(NC(=O)c2ccc(Cl)cc2)cc1 (centres undefined) | inactive | 
CCOC(=O)Oc1c(OC)cc(C(=O)O[C@H]2C[C@H]3CN4CCc5c([nH]c6cc(OC)ccc56)[C@@H]4C[C@H]3[C@@H](C(=O)OC)[C@@H]2OC)cc1OC | inactive | 
O=C(O)CCCNc1cc(N2CCC3(CC2)OCCO3)c2noc3c2c1C(=O)c1ccccc1-3 | inconclusive: 10 µM [cytotoxic, single point] | 
Cc1cc2oc(=O)c(CC(=O)NCCc3ccccc3)c(C)c2c2occ(C(C)(C)C)c12 | inconclusive: 25.1 µM [cytotoxic, single point] | 
CCCCN(C)CCCNC(=O)c1ccc2nc(N3CCCCC3)sc2c1 | inactive | 
O=C(Nc1ccccc1)N1CCc2ccccc2C1 | inconclusive: 25.1 µM [cytotoxic, single point] | 
CCN1C(=O)[C@H]2[C@H]3[C@H](O)[C@H](O)C/C(=N/OCc4ccccc4)[C@@H]3CC[C@@H]2C1=O |  | inactive: 1.44% [at 9.22 µM]
Cc1ccc(C(=O)CSC2=C(C#N)C(c3ccco3)C3=C(CC(C)(C)CC3=O)N2)cc1 (centres undefined) | inactive | 
COc1ccccc1NC(=O)c1oc2ccc(C)cc2c1C | inconclusive: 12.6 µM [cytotoxic, partial curve] | 
CCN(CC)c1ccc(-c2nn3c(-c4n[nH]c5c4CCC5)nnc3s2)cc1 | inconclusive: 25.1 µM [cytotoxic, single point] | 
CCn1c(C(=O)N2CCCC(C(=O)NCCCOC)C2)cc2sccc21 (centres undefined) | inactive | 

From PubChem BioAssay AID902 (National Center for Advancing Translational Sciences (NCATS), 2007)
